Experimental findings from patent US7385023B1, “Cancer immunotherapy and diagnosis using cytochrome P450 1B1” (Trustees of Boston University, priority 2000, dated 2008) are described below.

One test concerns the target HLA-A3 (Homo sapiens, UniProt P04439). As to the kind of experiment: Binding assay of peptides to T2 cells transfected with HLA-A3. Conditions: for FI class I: PBS 15.3.
Test [1] concerns the target HLA-A3 on T2 cells transfected with HLA-A3.
Test [2] shares this target. As to the kind of experiment: peptide binding to T2 cells transfected with HLA-A3, class I staining.
Test [3] shares this target. Briefly: peptide binding to T2 cells transfected with HLA-A3, class I staining (PBS background 15.3).

Where two headings read alike, the source gives them in different places.

Take FLDKDGLINK [CYP445]: in the test with HLA-A3, the FI is given as 0.27, the “binding to HLA-A3” value is “repeatedly bound to HLA-A3” and the “FI class I” value was 19.5.
With Flu-MP58 (peptide), the FI class I in test [1] is 34.8. Further, the FI in test [2] was 1.27.
For GLINKDLTSR [CYP450], in the test with HLA-A3, the FI amounted to 0.10 and the “FI class I” value is reported as 16.8.
Taken in the same sequence, the figures for GLTIKPKSFK [CYP508] were 0.07 and 16.4.
As to SMMRNFFTR [CYP150], in the test with HLA-A3, the FI is recorded as 0.12, the “binding to HLA-A3” value was “repeatedly bound to HLA-A3” and the “FI class I” value is recorded as 17.2.
Taken in the same sequence, the figures for SVLGYHIPK [CYP408] were 0.10, “repeatedly bound to HLA-A3” and 16.9.
GLINKDLTSR [CYP450 peptide from cytochrome P450 1B1 (…)] registered an FI in test [2] of 0.1. Besides, in test [3], the FI class I came to 16.8.
SVLGYHIPK [CYP408 peptide from cytochrome P450 1B1 (…)] showed an FI in test [2] of 0.1. The FI class I in test [3] was 16.9.
With FLDKDGLINK [CYP445 peptide from cytochrome P450 1B1 (…)], the FI in test [2] was 0.27. The same molecule yielded an FI class I in test [3] of 19.5.
The like results for SMMRNFFTR [CYP150 peptide from cytochrome P450 1B1 (…)] were, in that order, 0.12 and 17.2.
Taken in the same sequence, the figures for GLTIKPKSFK [CYP508 peptide from cytochrome P450 1B1 (…)] were 0.07 and 16.4.
